# Hit rate of the full screen: of about 310,000 compounds, about 14,000 (4.5%) showed an effect of 50% or more. Effects have a minus sign here. This is one part of the list.
# Target: human ether-à-go-go-related gene (hERG) potassium channel (human, UniProt Q12809)
# Experiment: primary screen, population patch clamp on CHO cells stably expressing hERG
# 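Note: peak tail current of the secondary pulse compared with the same well before compound.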
# Sequence of human ether-à-go-go-related gene (hERG) potassium channel (Q12809 whole entry, looked up): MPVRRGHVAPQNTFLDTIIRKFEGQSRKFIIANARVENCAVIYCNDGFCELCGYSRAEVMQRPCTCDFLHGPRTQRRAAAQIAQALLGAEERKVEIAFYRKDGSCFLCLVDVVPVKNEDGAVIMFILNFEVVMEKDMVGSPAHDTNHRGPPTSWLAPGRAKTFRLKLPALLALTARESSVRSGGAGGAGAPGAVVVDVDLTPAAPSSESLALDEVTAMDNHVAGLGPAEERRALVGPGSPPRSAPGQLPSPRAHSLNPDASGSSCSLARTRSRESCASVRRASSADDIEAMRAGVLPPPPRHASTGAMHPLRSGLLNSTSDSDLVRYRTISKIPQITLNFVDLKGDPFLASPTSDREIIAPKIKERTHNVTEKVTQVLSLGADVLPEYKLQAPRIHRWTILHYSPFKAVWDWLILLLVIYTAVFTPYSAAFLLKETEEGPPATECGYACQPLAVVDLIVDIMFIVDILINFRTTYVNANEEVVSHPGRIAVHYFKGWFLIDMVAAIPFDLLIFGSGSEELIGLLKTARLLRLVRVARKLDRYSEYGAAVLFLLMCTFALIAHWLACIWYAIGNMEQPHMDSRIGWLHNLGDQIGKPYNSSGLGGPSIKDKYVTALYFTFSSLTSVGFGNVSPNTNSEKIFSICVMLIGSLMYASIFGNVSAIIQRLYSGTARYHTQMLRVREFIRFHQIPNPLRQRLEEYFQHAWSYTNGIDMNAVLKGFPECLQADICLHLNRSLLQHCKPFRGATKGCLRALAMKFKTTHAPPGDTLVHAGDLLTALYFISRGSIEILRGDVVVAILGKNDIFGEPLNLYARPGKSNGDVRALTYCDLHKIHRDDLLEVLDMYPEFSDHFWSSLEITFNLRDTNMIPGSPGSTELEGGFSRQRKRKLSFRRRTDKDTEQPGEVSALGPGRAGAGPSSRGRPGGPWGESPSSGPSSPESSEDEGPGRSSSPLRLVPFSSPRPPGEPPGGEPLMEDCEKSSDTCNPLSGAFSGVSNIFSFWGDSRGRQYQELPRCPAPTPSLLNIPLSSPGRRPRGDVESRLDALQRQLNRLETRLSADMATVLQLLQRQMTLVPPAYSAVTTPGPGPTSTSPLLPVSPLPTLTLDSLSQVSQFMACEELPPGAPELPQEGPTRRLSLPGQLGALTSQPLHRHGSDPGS
row,Compound,"hERG current change (%, negative = inhibition) at 10uM [%]"
1,Cc1ccc(C(=O)C2C(c3ccc(-c4ccccc4[N+](=O)[O-])o3)NC(=O)NC2(O)C(F)(F)F)cc1 (stereo not drawn),-10
2,Cc1ccc(CN2C(=O)c3ccccc3Sc3ccc(C(=O)NCCN4CCOCC4)cc32)cc1,-15.2
3,CC(=O)c1cccc(NC(=O)c2ccc(Br)o2)c1,-1.49
4,COc1ccc(-c2cc(C(=O)N3CCN(S(=O)(=O)c4ccccc4)CC3)[nH]n2)cc1,8.23
5,Cc1nc(=O)c(-c2ccccc2)c(C)n1CCCCCC(=O)O,10.4
6,CC(=O)c1ccc(OCCCC(=O)NCCc2ccccc2)cc1,5.12
7,Cc1ccc(C(=O)N/N=C/c2ccc(-c3cccc(Cl)c3)o2)cn1,-27.8
8,COc1cc2ccccc2cc1C(=O)NCC(c1cccs1)N(C)C (stereo not drawn),-27.6
9,Cc1cnn(C(=S)NCc2ccco2)c1,5.8
10,O=C(N/C(=C\c1cccnc1)C(=O)N1CCCCC1)c1cccc(Br)c1,2.68
11,O=C(NCCN1CCOCC1)c1csc2c1CCCCC2,5.21
12,Cc1cc(-n2c(C)cc(C(=O)CN3C(=O)NC4(CCCC4)C3=O)c2C)no1,-12.9
13,Cc1ccc(C)c(Cn2c(O)c(N=NC(=S)Nc3ccccc3F)c3ccccc32)c1,9.52
14,COc1ccc(C2SC[C@@H](C(=O)O)N2C(C)=O)cc1 (stereo partly drawn),2.53
15,O=C(c1cc(-c2ccc(Cl)cc2)on1)N1CCCCCC1,2.79
16,Cc1ccc(C(=O)N/C(=C\c2sccc2C)C(=O)NCc2ccncc2)cc1,-30.5
17,O=C(NCCN1CCOCC1)c1cc(-c2ccc(Br)cc2)on1,-22
18,COc1ccc(-c2noc(CNS(=O)(=O)c3ccccc3)n2)cc1,5.08
19,COc1ccc(C2CN=NC23CCCc2ccccc2C3=O)cc1 (stereo not drawn),0.823
20,CN1C2Cc3c(n(C)c4ccccc34)C1CC=C2CO (stereo not drawn),12.1
21,C1CCN=C(Nc2nc3c(s2)CCCC3)CC1,-16.3
22,Cc1nn(C)cc1C(C(=O)NC1CCCCC1)N(C(=O)Cc1cccs1)c1ccc(C(C)C)cc1 (stereo not drawn),-31.7
23,Cc1cccc(NC(=O)NC2CC3CCC(C2)N3Cc2ccco2)c1 (stereo not drawn),-2.61

row,Compound,"hERG current change (%, negative = inhibition) at 10uM [%]"
1,Cc1ccc(CNC(=O)C2CCC(=O)N(C3CCCC3)C2)c(F)c1F (stereo not drawn),2.29
2,O=C(COc1ccccc1Cl)NCCCNC(=O)c1ccccn1,15.8
3,Cc1ccc(NC(=O)Cc2nc(CN(C)CC(=O)Nc3ccc(C)cc3)cs2)cc1,-26
4,Cc1cc2ncn(CC(O)COc3cccc(C(=O)O)c3)c2cc1C (stereo not drawn),-10.8
5,O=C1/C(=C/c2ccc(F)cc2)SC(=S)N1CCCC(=O)N1CCCCC1CCO (stereo not drawn),-35
6,CCCNS(=O)(=O)c1cccc(C(=O)NC2CCCc3ccccc32)c1 (stereo not drawn),-31.8
7,Nc1c(C(=O)CSc2ncccn2)c(=O)[nH]c(=O)n1C1CC1,12.3
8,COc1cccc(/C=C/C(=O)N2CC(C)OC(C)C2)c1OC (stereo not drawn),11.3
9,CCC(=O)Nc1sc2c(c1C(N)=O)CCN(C(C)=O)C2,10.7
10,COc1cccc([C@H](O)Cn2cc(-c3ccc(CON=C(C)C)cc3)nn2)c1,8.09
11,COc1ccc(S(=O)(=O)N/N=C\c2ccc3c(c2)OCO3)cc1,0.548
12,Cc1ccc(NC(=O)CSCC(=O)N2CCCc3ccccc32)cc1,-26.4
13,CCCc1nnc(NC(=O)CCC(=O)NCc2ccccc2OC)s1,21.4
14,Cc1ccc(SCc2[nH]nc3c2C2(C(=O)Nc4ccc(F)cc42)C(C#N)=C(N)O3)cc1 (stereo not drawn),-6.28
15,O=C(CSc1ccccn1)N1CCOCC1,-7.56
16,CCOC(=O)CN1C(=O)S/C(=C\c2ccc3c(c2)OCO3)C1=O,4.47
17,CC(C)(O)C#Cc1ccc(C(=O)NCCC(=O)O)s1,32.6
18,O=C(NCC(O)c1ccccc1)c1ccc(Cl)c(S(=O)(=O)N2CCCC2)c1 (stereo not drawn),-0.367
19,CC1(C)CC(=O)C(C(C#Cc2ccccc2)C2=C(O)CC(C)(C)CC2=O)=C(O)C1,6.97
20,Cc1ccc(NC(=O)CSc2nnc(Cc3csc(C)n3)o2)c(C)c1,14.5
21,O=Cc1cn(CCC(=O)O)nc1-c1cccc2ccccc12,13.5
22,CCOC(=O)c1cc2cc(F)ccc2nc1C,2.03
23,CC(NC(=O)CCC(=O)c1ccccc1)c1ccc(F)cc1 (stereo not drawn),10.3

row,Compound,"hERG current change (%, negative = inhibition) at 10uM [%]"
1,Cc1ccc(N2CC(C(=O)N3CCN(C(=O)c4ccco4)CC3)CC2=O)cc1 (stereo not drawn),-71.7
2,Cc1ccccc1NC(=O)CSc1nnc(NC(=O)C2CC2)s1,2.89
3,O=C(NNC(=S)Nc1ccccc1)c1cccs1,17.1
4,O=C(N/N=C1\C2CN3CCN(C2)CC1(c1ccccc1)C3)Nc1ccccc1,-2.88
5,Cc1ccc(OCCn2cc(/C=C(\C#N)C(=O)NCC3CCCO3)c3ccccc32)cc1 (stereo not drawn),11.4
6,COc1ccc2cc(/C=N/NC(=O)CSCc3ccc([N+](=O)[O-])cc3)c(Cl)nc2c1,0.136
7,COc1cccc(/C(C)=N/NS(=O)(=O)c2ccc(Cl)cc2)c1,-4.83
8,Cc1cccnc1NC(=O)C1CCN(S(=O)(=O)c2cccs2)CC1,-6.07
9,O=C(c1ccc(C(=O)N2CCOCC2)nc1)N1CCOCC1,18.9
10,N=C1C(c2ccccc2)=C(O)CN1Cc1ccco1,6.39
11,O=[N+]([O-])c1cc([N+](=O)[O-])c2n[nH]c(-c3ccccc3)c2c1,3.26
12,CC(=O)Nc1cc2c(cc1C(C)=O)OCCO2,7.08
13,COc1ccc(NC(=O)Cn2c(=O)sc3ccccc32)c(OC)c1,-1.36
14,C=CC1=C2C=C(C3CC3)N(CC3CC3)C=C2C(=O)C(C)(OC(=O)c2ccco2)C1=O (stereo not drawn),-12.1
15,CNc1nc(Nc2ccc(C)c(Cl)c2)nc(N)c1[N+](=O)[O-],9.55
16,C=CCSc1nc2ccccc2n1S(=O)(=O)c1ccc(C)cc1,15.9
17,CN(C(=O)COc1coc(CN2CCN(c3ccccc3)CC2)cc1=O)c1ccccc1,-5.19
18,O=C(O)CCCCCN1C(=O)CCC1=O,8.39
19,Cl.NC(=O)c1[nH]cnc1N,5.73
20,CCS(=O)(=O)Nc1ccc(C(=O)c2ccccc2)cc1,-4.22
21,COc1ccccc1/C=C/C(=O)N1CCc2cc(OC)c(OC)cc2C1C (stereo not drawn),-24.4
22,Cc1cccc(NC(=O)c2ccc(F)c(S(=O)(=O)NCc3ccco3)c2)c1,-18.1
23,CC(=O)c1ccc(N2CCN(C(=O)c3cc(-c4ccc5c(c4)OCO5)nc4ccccc34)CC2)cc1,2.88

row,Compound,"hERG current change (%, negative = inhibition) at 10uM [%]"
1,COc1cc(C(=O)NCc2nnc(SCC(=O)c3ccc(Cl)cc3)o2)cc(OC)c1OC,-13.4
2,CCOc1ccc(CC(=O)NCC2(N3CCCCC3)CCCCC2)cc1,-17
3,COc1ccccc1C(=O)NNC(=O)c1ccccc1Br,23
4,Cc1ccc(S(=O)(=O)N(C)CC(=O)OCC(=O)c2c(N)n(C)c(=O)n(C)c2=O)cc1,-47.1
5,CC(C)(C)c1ccc(S(=O)(=O)N2CC(C(=O)O)Oc3ccc(Cl)cc32)cc1 (stereo not drawn),-3.82
6,Cc1cc(Oc2ccc(=O)n(C)n2)nc(SCCOc2ccccc2)n1,-31.6
7,c1ccc(COCCCn2cc(-c3ccccc3)nn2)cc1,3.86
8,Cc1cc(C(=O)CSc2nnnn2C)c(C)n1Cc1ccco1,27.7
9,CCOC(=O)C1=C(Cc2ccc(F)cc2)C(=O)c2ccccc2C1=O,4.36
10,COc1ccc(C2/C=C\CN(S(=O)(=O)/C=C/c3ccccc3)CC(=O)N2Cc2ccc(F)cc2)cc1 (stereo not drawn),-8.33
11,CC(O)CNc1nc2c(c(=O)n(C)c(=O)n2C)n1Cc1cccc(C(F)(F)F)c1 (stereo not drawn),-12.9
12,CCOc1ccc(-c2cccc(NC(=O)COc3ccc(Cl)cc3)c2)nn1,3.64
13,Cc1cc(C)c(/C=C(\C#N)C(N)=S)c(C)c1,8.24
14,O=C(c1ccc(-n2cccn2)cc1)N1CCc2c([nH]c3ccccc23)C1c1ccccn1 (stereo not drawn),-2.49
15,CC(=O)c1ccc(C)cc1OC(=O)c1cccc(F)c1,13.4
16,COc1cccc(CNc2nnnn2C)c1,14.2
17,CC(=O)Nc1cccc(NC(=O)c2ccc(C(=O)Nc3cccc(NC(C)=O)c3)nc2)c1,25.7
18,COc1ccc(OC)c(N/C(C)=C/C(=O)c2ccc(Br)cc2)c1,-0.328
19,CCCc1cc(C(=O)NC(C)C2CCCO2)cs1 (stereo not drawn),7.72
20,Cn1nccc1C(=O)OCC(=O)Nc1ccc(S(N)(=O)=O)cc1,9.48
21,Cc1nc(-c2cccc(S(=O)(=O)N3CCC(C)CC3)c2)cs1,-13.4

# Source: article PMC4336329 (PLoS ONE, 2015)
